Over roughly 33,000 sequences, “E-score (-0.5 to 0.5)” has its median near -0.012; the highest 2% begin near 0.29. This is one part of the list.
Target: T1, Ybr033w (UniProt P38073)
T1 sequence: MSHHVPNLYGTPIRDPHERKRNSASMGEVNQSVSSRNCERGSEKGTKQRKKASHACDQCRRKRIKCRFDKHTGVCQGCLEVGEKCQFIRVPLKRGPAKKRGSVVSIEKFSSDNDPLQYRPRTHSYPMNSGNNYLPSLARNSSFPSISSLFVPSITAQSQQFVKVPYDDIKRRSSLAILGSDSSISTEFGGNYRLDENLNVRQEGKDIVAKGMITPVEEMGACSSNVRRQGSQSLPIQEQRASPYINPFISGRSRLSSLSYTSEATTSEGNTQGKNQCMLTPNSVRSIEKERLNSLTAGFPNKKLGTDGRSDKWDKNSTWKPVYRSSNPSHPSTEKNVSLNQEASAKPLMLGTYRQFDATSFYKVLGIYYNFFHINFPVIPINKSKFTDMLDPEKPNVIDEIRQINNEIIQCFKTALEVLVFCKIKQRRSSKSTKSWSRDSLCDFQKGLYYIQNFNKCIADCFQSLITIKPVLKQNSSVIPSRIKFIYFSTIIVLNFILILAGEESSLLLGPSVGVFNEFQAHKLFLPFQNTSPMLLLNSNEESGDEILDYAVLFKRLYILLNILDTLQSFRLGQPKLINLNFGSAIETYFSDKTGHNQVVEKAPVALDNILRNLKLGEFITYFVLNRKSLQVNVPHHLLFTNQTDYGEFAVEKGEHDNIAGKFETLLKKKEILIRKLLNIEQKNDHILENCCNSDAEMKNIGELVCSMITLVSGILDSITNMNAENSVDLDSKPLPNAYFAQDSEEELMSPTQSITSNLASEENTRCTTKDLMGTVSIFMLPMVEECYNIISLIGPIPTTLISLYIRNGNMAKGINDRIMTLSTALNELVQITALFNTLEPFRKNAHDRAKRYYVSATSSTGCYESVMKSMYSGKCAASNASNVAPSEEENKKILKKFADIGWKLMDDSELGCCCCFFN
Test: PBM E-score (8-mer binding enrichment) (E-score (-0.5 to 0.5)); higher = stronger / more preferred TF binding; most listed sequences are background and not binding sites
Details: protein concentration: 200 nM; construct: GST-full length
Method in brief: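 Full-length yeast transcription factors or their DNA-binding domains, GST-tagged and expressed with PURExpress, were applied at about 100-200 nM to universal all-10-mer Agilent arrays. These arrays had been made double-stranded by primer extension on fresh or once-stripped slides. Detection used fluorescent anti-GST, normalisation used masliner, and E-scores for ungapped eight-base words pooled with reverse complements came from the Universal PBM Analysis Suite.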

First: CATGAAGC
Second: GTGGCTTA
The “PBM E-score” value of the first is higher: -0.0855 for the first, -0.226 for the second.

Going from CGGTAGGC to CTTCCAAC, the “PBM E-score” value rises from -0.155 to 0.109.

Compared with GAGGCTTA, CGCAGTCC is lower in “PBM E-score” value: -0.113 for the first, -0.126 for the second.

First: CGTAGCAA
Second: AGTGTACA
The “PBM E-score” value of the first is lower: -0.0234 for the first, 0.074 for the second.

Going from AGGGGAGA to TTTTAAAA, the “PBM E-score” value rises from -0.277 to 0.073.

Going from TCTCGGCA to CCCCTTAA, the “PBM E-score” value rises from -0.181 to -0.15.

Going from ACACATAA to GCACGCAC, the “PBM E-score” value falls from 0.251 to -0.253.

First: TCACGCGA
Second: AACGGGAG
The “PBM E-score” value of the first is lower: 0.0143 for the first, 0.0655 for the second.

First: AAGCTGCT
Second: TAGACGGA
The “PBM E-score” value of the first is lower: 0.0726 for the first, 0.121 for the second.

Compared with GCGGGACC, GAGCTTTA is higher in “PBM E-score” value: -0.17 for the first, -0.111 for the second.

First: ACCTCACT
Second: CCTCGAGA
The “PBM E-score” value of the first is higher: -0.0376 for the first, -0.183 for the second.

First: ACACGTAG
Second: CCCGACGA
The “PBM E-score” value of the first is lower: -0.257 for the first, 0.0436 for the second.

Going from CCTAGTAG to ATTGATAA, the “PBM E-score” value rises from -0.0358 to 0.222.

Compared with CCTGGTAA, CAGATGGG is higher in “PBM E-score” value: -0.219 for the first, -0.0813 for the second.

Going from ACCATCGT to GTCCCGGA, the “PBM E-score” value falls from -0.0633 to -0.115.

Going from ACCGAATA to CAAGACGG, the “PBM E-score” value falls from 0.0542 to -0.267.

First: AGCACAAA
Second: GAGTTTTA
The “PBM E-score” value of the first is higher: 0.205 for the first, 0.146 for the second.

First: CACCATGC
Second: GCGGAATA
The “PBM E-score” value of the first is lower: -0.0326 for the first, 0.293 for the second.

Compared with GCATGAAC, CGGCGTTC is lower in “PBM E-score” value: 0.0783 for the first, -0.104 for the second.

First: CGCATACA
Second: TATACAGA
The “PBM E-score” value of the first is lower: 0.0637 for the first, 0.256 for the second.

First: GCGGTAGA
Second: ACTCTTAT
The “PBM E-score” value of the first is lower: -0.109 for the first, 0.284 for the second.

First: CATCGCAC
Second: CGCGTCTC
The “PBM E-score” value of the first is lower: -0.136 for the first, -0.0288 for the second.

Going from TCAGGACA to GACCGTTA, the “PBM E-score” value falls from 0.0719 to -0.0688.

Going from ACCCACTG to CAGTACCC, the “PBM E-score” value falls from 0.0586 to -0.184.

Going from ACCTAAAA to GGCGTTCA, the “PBM E-score” value falls from 0.1 to -0.0197.

Compared with ACACTACA, CGTGACGA is lower in “PBM E-score” value: 0.17 for the first, 0.0211 for the second.

First: TCCCGCAA
Second: GATCACGC
The “PBM E-score” value of the first is lower: -0.0556 for the first, 0.0676 for the second.

Compared with GGAGTTGA, ACGGAGGC is lower in “PBM E-score” value: -0.0103 for the first, -0.0923 for the second.

First: CCAGTAGG
Second: ACGAATAG
The “PBM E-score” value of the first is lower: -0.077 for the first, 0.026 for the second.

Going from CTCCTAGC to TATTACCA, the “PBM E-score” value rises from -0.17 to 0.196.

Compared with ACTCTCCG, TATAGTAA is higher in “PBM E-score” value: 0.00209 for the first, 0.282 for the second.

Going from CCCCCCTC to TAGTACGA, the “PBM E-score” value rises from -0.377 to 0.119.

First: AAGCGCAT
Second: CGAGTCGC
The “PBM E-score” value of the first is higher: -0.0621 for the first, -0.117 for the second.

First: GACAACAC
Second: ACCAATTA
The “PBM E-score” value of the first is lower: -0.223 for the first, 0.221 for the second.

First: AGCTACAA
Second: ATGATGGC
The “PBM E-score” value of the first is higher: 0.0561 for the first, -0.0701 for the second.

Going from ACGAGAGA to AAATCACA, the “PBM E-score” value rises from -0.103 to 0.052.

Going from ATTCAGTC to AAAATAGA, the “PBM E-score” value rises from -0.0995 to 0.332.

Compared with CGATCCCC, AGCGGCCA is higher in “PBM E-score” value: -0.34 for the first, -0.238 for the second.

Going from CCCGTGCC to GATGCTAC, the “PBM E-score” value rises from -0.302 to 0.0488.

First: CAGTTATC
Second: AGTGCTGC
The “PBM E-score” value of the first is higher: -0.0111 for the first, -0.0461 for the second.

Compared with CTATGAGA, CAGGTTAA is lower in “PBM E-score” value: 0.042 for the first, -0.00969 for the second.

First: AAACTCTA
Second: AAAATCTA
The “PBM E-score” value of the first is lower: 0.161 for the first, 0.289 for the second.

Compared with GTTTTTAA, AACCCATA is higher in “PBM E-score” value: 0.158 for the first, 0.259 for the second.

Compared with ATCGCCGG, ACCGTCGG is lower in “PBM E-score” value: -0.103 for the first, -0.203 for the second.

First: AGTGACTG
Second: AGCTCAAC
The “PBM E-score” value of the first is lower: -0.123 for the first, 0.104 for the second.

Going from ACCCCTCG to GCTCCACC, the “PBM E-score” value falls from -0.119 to -0.305.

Compared with AACTCGGT, AATGAAAT is higher in “PBM E-score” value: 0.105 for the first, 0.282 for the second.

Compared with AACATTGT, AGTATCCC is lower in “PBM E-score” value: 0.158 for the first, -0.135 for the second.

Compared with AAAAAGAA, GCTCTACC is lower in “PBM E-score” value: 0.22 for the first, -0.168 for the second.

Going from TCTCTGAA to ATAGAATC, the “PBM E-score” value rises from -0.0463 to 0.035.

Going from AATTACGG to ACATGATG, the “PBM E-score” value falls from 0.176 to -0.00243.

First: CCAGACCG
Second: GTAAGAAA
The “PBM E-score” value of the first is lower: -0.116 for the first, 0.0934 for the second.

First: CATCCACC
Second: AGCCTCGC
The “PBM E-score” value of the first is higher: 0.0603 for the first, -0.197 for the second.

First: AGCATTGG
Second: AACGAGTC
The “PBM E-score” value of the first is higher: 0.103 for the first, -0.115 for the second.

Compared with GTGAGTCA, ATTAGTGA is higher in “PBM E-score” value: -0.00046 for the first, 0.102 for the second.

Going from CATAACCA to AGCCCGGC, the “PBM E-score” value falls from 0.0466 to -0.228.

Going from CCCACAGC to AAAGTACT, the “PBM E-score” value rises from -0.146 to 0.177.

Going from ATAATTAG to AAAGCGTC, the “PBM E-score” value falls from 0.272 to -0.071.

First: TCCCATCA
Second: ACCATGTG
The “PBM E-score” value of the first is lower: -0.0886 for the first, -0.0472 for the second.

First: GTACAAAC
Second: GCGTGGAA
The “PBM E-score” value of the first is higher: 0.0352 for the first, -0.0974 for the second.

Compared with TATGGTAA, GGCATGTA is lower in “PBM E-score” value: 0.178 for the first, 0.0243 for the second.

Going from AACCCAGG to ATTGCGAA, the “PBM E-score” value rises from -0.0839 to -0.019.

Going from AGTCGGTA to ACTCTACC, the “PBM E-score” value rises from -0.146 to -0.0555.

Going from ATCATGCC to TGGAAGAA, the “PBM E-score” value rises from -0.0169 to 0.347.

First: GGTGGTAA
Second: GAGACTCC
The “PBM E-score” value of the first is higher: 0.137 for the first, -0.173 for the second.

Going from CAAAAGTG to CGCTGTCC, the “PBM E-score” value rises from -0.0857 to 0.0111.

Going from AGGAGAGA to GTCAAGTA, the “PBM E-score” value falls from 0.0939 to -0.298.

Compared with CGAAAGTC, GTCCACTA is higher in “PBM E-score” value: -0.239 for the first, -0.0107 for the second.

Compared with AGTAAAAG, CACTGCGC is lower in “PBM E-score” value: 0.229 for the first, -0.0775 for the second.

Going from AAAGAGTG to CGCGTGTC, the “PBM E-score” value rises from -0.0808 to 0.0664.

Compared with TATGGGCA, GCGGCCCC is lower in “PBM E-score” value: -0.2 for the first, -0.401 for the second.

Compared with TGTTTAAA, AGGTCAGG is lower in “PBM E-score” value: 0.143 for the first, -0.233 for the second.

First: ATCTGGAC
Second: ATTTTAGC
The “PBM E-score” value of the first is lower: -0.177 for the first, 0.102 for the second.

Going from GGATTTCA to ATTAGGTG, the “PBM E-score” value rises from 0.0761 to 0.115.

Going from ACAGCTAA to ACCTGGTA, the “PBM E-score” value falls from 0.0682 to -0.211.

First: GAAAAGCC
Second: ATCATACA
The “PBM E-score” value of the first is lower: 0.0336 for the first, 0.25 for the second.

Going from ATCATTAG to GAACAAGC, the “PBM E-score” value falls from 0.16 to -0.0592.

First: CTTGGTCA
Second: GCACGCTA
The “PBM E-score” value of the first is higher: 0.183 for the first, -0.131 for the second.

First: GCGGAAGA
Second: CGCTCATC
The “PBM E-score” value of the first is higher: 0.236 for the first, -0.0261 for the second.

Compared with CAGATCGC, GGGTCACC is lower in “PBM E-score” value: -0.164 for the first, -0.308 for the second.

Compared with ATATCCCC, AGCGGGAG is lower in “PBM E-score” value: -0.0237 for the first, -0.0882 for the second.

Compared with AGGGCTAC, ATGGGTCC is lower in “PBM E-score” value: -0.247 for the first, -0.26 for the second.

Going from AGCAGCTC to ACGGTCCC, the “PBM E-score” value falls from -0.194 to -0.258.

Compared with AGCAAACC, CGGTCACG is lower in “PBM E-score” value: 0.145 for the first, -0.212 for the second.

Compared with GCCGGCTA, ATCTAGTC is higher in “PBM E-score” value: -0.148 for the first, 0.026 for the second.

Going from CGTTATGA to CGTCCTCC, the “PBM E-score” value falls from 0.0351 to -0.314.

From the supplement of paper PMC3334620
